{"source": "the supplement of paper PMC8728848", "assay_in_all_cases": "glycan array binding signal (z-score within array); higher = stronger binding", "conditions_in_all_cases": "glycan notation: IUPAC condensed, linker removed; mutation: R120K", "key": {"[1]": {"biological_target": "Gal(b1-4)GalNAc(b1-3)[Fuc(a1-2)]Gal(b1-4)GlcNAc", "outline": "(§1)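 The binding signal is a Z-score computed within each array. Data were drawn from 3228 arrays in the Consortium for Functional Glycomics database, restricted to those with a known protein sequence. Scores were averaged over arrays of the same protein sequence at different concentrations or buffers, and over linkers, and negative values can be taken as non-binding.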"}, "Gal(b1-4)Glc": {"biological_target": "Gal(b1-4)Glc", "outline": "as §1"}, "Gal(b1-4)Glc6S": {"biological_target": "Gal(b1-4)Glc6S", "outline": "as §1"}, "Gal(b1-4)GlcNAc": {"biological_target": "Gal(b1-4)GlcNAc", "outline": "as §1"}, "[2]": {"biological_target": "Gal(b1-4)GlcNAc(a1-6)Gal(b1-4)GlcNAc", "outline": "as §1"}, "Gal(b1-4)GlcNAc(b1-2)Man": {"biological_target": "Gal(b1-4)GlcNAc(b1-2)Man", "outline": "as §1"}, "[3]": {"biological_target": "Gal(b1-4)GlcNAc(b1-2)Man(a1-3)Man(b1-4)GlcNAc(b1-4)GlcNAc", "outline": "as §1"}, "[4]": {"biological_target": "Gal(b1-4)GlcNAc(b1-2)Man(a1-3)[Gal(b1-4)GlcNAc(b1-2)Man(a1-6)]Man(b1-4)GlcNAc(b1-4)GlcNAc", "outline": "as §1"}, "[5]": {"biological_target": "Gal(b1-4)GlcNAc(b1-2)Man(a1-3)[Gal(b1-4)GlcNAc(b1-2)Man(a1-6)]Man(b1-4)GlcNAc(b1-4)[Fuc(a1-6)]GlcNAc", "outline": "as §1"}, "[6]": {"biological_target": "Gal(b1-4)GlcNAc(b1-2)Man(a1-3)[Gal(b1-4)GlcNAc(b1-2)Man(a1-6)][Gal(b1-4)GlcNAc(b1-4)]Man(b1-4)GlcNAc(b1-4)[Fuc(a1-6)]GlcNAc", "outline": "as §1"}, "[7]": {"biological_target": "Gal(b1-4)GlcNAc(b1-2)Man(a1-3)[Gal(b1-4)GlcNAc(b1-2)Man(a1-6)][GlcNAc(b1-4)]Man(b1-4)GlcNAc(b1-4)[Fuc(a1-6)]GlcNAc", "outline": "as §1"}, "[8]": {"biological_target": "Gal(b1-4)GlcNAc(b1-2)Man(a1-3)[GlcNAc(b1-2)Man(a1-6)]Man(b1-4)GlcNAc(b1-4)GlcNAc", "outline": "as §1"}, "[9]": {"biological_target": "Gal(b1-4)GlcNAc(b1-2)Man(a1-3)[GlcNAc(b1-4)][Gal(b1-4)GlcNAc(b1-2)Man(a1-6)]Man(b1-4)GlcNAc(b1-4)GlcNAc", "outline": "as §1"}, "[10]": {"biological_target": "Gal(b1-4)GlcNAc(b1-2)Man(a1-3)[Man(a1-6)]Man(b1-4)GlcNAc(b1-4)GlcNAc", "outline": "as §1"}, "[11]": {"biological_target": "Gal(b1-4)GlcNAc(b1-2)Man(a1-6)Man(b1-4)GlcNAc(b1-4)GlcNAc", "outline": "as §1"}, "[12]": {"biological_target": "Gal(b1-4)GlcNAc(b1-2)Man(a1-6)[GlcNAc(b1-2)Man(a1-3)]Man(b1-4)GlcNAc(b1-4)GlcNAc", "outline": "as §1"}, "[13]": {"biological_target": "Gal(b1-4)GlcNAc(b1-2)Man(a1-6)[Man(a1-3)]Man(b1-4)GlcNAc(b1-4)GlcNAc", "outline": "as §1"}, "[14]": {"biological_target": "Gal(b1-4)GlcNAc(b1-2)[Gal(b1-4)GlcNAc(b1-4)]Man(a1-3)[Gal(b1-4)GlcNAc(b1-2)Man(a1-6)]Man(b1-4)GlcNAc(b1-4)GlcNAc", "outline": "as §1"}}, "note": "The other results are listed elsewhere or left out.", "data": [{"binder": "Siglec-9 (Homo sapiens), Q9Y336 (protein) MLLLLLPLLWGRERAEGQTSKLLTMQSSVTVQEGLCVHVPCSFSYPSHGWIYPGPVVHGYWFREGANTDQDAPVATNNPARAVWEETRDRFHLLGDPHTKNCTLSIRDARRSDAGRYFFKMEKGSIKWNYKHHRLSVNVTALTHRPNILIPGTLESGCPQNLTCSVPWACEQGTPPMISWIGTSVSPLDPSTTRSSVLTLIPQPQDHGTSLTCQVTFPGASVTTNKTVHLNVSYPPQNLTMTVFQGDGTVSTVLGNGSSLSLPEGQSLRLVCAVDAVDSNPPARLSLSWRGLTLCPSQPSNPGVLELPWVHLRDAAEFTCRAQNPLGSQQVYLNVSLQSKATSGVTQGVVGGAGATALVFLSFCVIFVVVRSCRKKSARPAAGVGDTGIEDANAVRGSASQGPLTEPWAEDSPPDQPPPASARSSVGEGELQYASLSFQMVKPWDSRGQEATDTEYSEIKIHR", "values": [{"measurement": "glycan array binding signal (z-score)", "setting": "[1]", "result": -0.268}, {"measurement": "glycan array binding signal (z-score)", "setting": "Gal(b1-4)Glc", "result": -0.292}, {"measurement": "glycan array binding signal (z-score)", "setting": "Gal(b1-4)Glc6S", "result": 0.05}, {"measurement": "glycan array binding signal (z-score)", "setting": "Gal(b1-4)GlcNAc", "result": -0.39}, {"measurement": "glycan array binding signal (z-score)", "setting": "[2]", "result": -0.474}, {"measurement": "glycan array binding signal (z-score)", "setting": "Gal(b1-4)GlcNAc(b1-2)Man", "result": 0.289}, {"measurement": "glycan array binding signal (z-score)", "setting": "[3]", "result": -0.148}, {"measurement": "glycan array binding signal (z-score)", "setting": "[4]", "result": -0.076}, {"measurement": "glycan array binding signal (z-score)", "setting": "[5]", "result": -0.105}, {"measurement": "glycan array binding signal (z-score)", "setting": "[6]", "result": -0.263}, {"measurement": "glycan array binding signal (z-score)", "setting": "[7]", "result": -0.628}, {"measurement": "glycan array binding signal (z-score)", "setting": "[8]", "result": -0.682}, {"measurement": "glycan array binding signal (z-score)", "setting": "[9]", "result": -0.087}, {"measurement": "glycan array binding signal (z-score)", "setting": "[10]", "result": 0.057}, {"measurement": "glycan array binding signal (z-score)", "setting": "[11]", "result": -0.062}, {"measurement": "glycan array binding signal (z-score)", "setting": "[12]", "result": -0.317}, {"measurement": "glycan array binding signal (z-score)", "setting": "[13]", "result": 0.025}, {"measurement": "glycan array binding signal (z-score)", "setting": "[14]", "result": -0.619}]}]}
